Data published in patent publication US20260008856A1, “METHODS OF TREATING DISEASE USING ANTI-IL1RAP ANTIBODIES AND ANTIBODY DRUG CONJUGATES” (Bluefin Biomedicine, Inc., priority 2022, published 2026).

Experiments:
Karpas 299 = test: Flow cytometry binding to endogenous cell line Karpas 299; format: cell-based, human; parameters: key: (−): No binding; (+): Weak binding; (++): Moderate binding; (+++): Strong binding; conditions: primary antibody 1 ug/ml
Procedure: (§1) Staining for flow cytometry was performed in 1× cold PBS with 0.5% BSA. Primary antibodies (1 ug/ml) were incubated with live cells on ice for 30 minutes, after a brief wash, cells were incubated with Alexa Fluro® 488-conjugated anti-human IgG secondary antibody @1:1000 (709-546-149, Jackson ImmunoResearch). Acquisition of the data was performed on a MACSQuant® Flow Cytometers (Miltenyi Biotec) and analyzed with FlowJo software.
(§2) Over 1,000 hits were identified that bind strongly to CHO-human IL1RAP, but not parental CHO cells. 68 clones were selected for molecular cloning. Based on unique CDR3 sequences from the heavy chain variable domain, 35 antibodies from 13 families were confirmed by binding in IL1RAP positive cell lines EOL1 and Karpas 299 (see Table 8) by flow cytometry (MACSQuant® www.miltenybiotec.com).

EOL-1 = test: Flow cytometry binding to endogenous cell line EOL-1; format: cell-based, human; parameters: key: (−): No binding; (+): Weak binding; (++): Moderate binding; (+++): Strong binding; conditions: primary antibody 1 ug/ml
Procedure: as §1, §2

Molecule | binding to Karpas 299 by flow cytometry (Karpas 299) | binding to EOL-1 by flow cytometry (EOL-1)
17E9_15B1: human anti-IL1RAP antibody, VH SEQ ID NO: 100, VL SEQ ID NO: 103 (antibody, V domains shown) VH: [about 120 residues cut from this listing] VL: DIQMTQSPSSLSASVGDRVTLTCRASQNIRSYLNWYQQKPGKAPKLLIFAASSLPSGVPSRFSGSGSVTDFTLTVSSLQPEDFATYSCQQSYSTPYTFGQGTKLEIK | (+++) | (+++)
40C3_22B6: human anti-IL1RAP antibody, VH SEQ ID NO: 158, VL SEQ ID NO: 160 (antibody, V domains shown) VH: EVQLVESGGGLVQPGGSLRLSCAASGFTLSFYWMTWVRQAPGKGLEWVANIKQDGNEKNFVDSVKGRFTISRDNAKKSVFLQMNSLRAEDTAVYYCAREGYFGSGYFDYWGQGTLVTVSS VL: [about 100 residues cut from this listing]HTFGQGTKLEIK | (+++) | 
